Source: PubChem BioAssay AID1347417 (National Center for Advancing Translational Sciences (NCATS), 2020)
The whole screen tested about 120,000 compounds, of which about 5,300 (4.4%) were called active. The inconclusive results got no clear call from the source; some entries with a clear call stand among them for comparison. Calls follow the shape of the dose curve; as a rule, active = well fitted inhibition curve with a large enough effect; inconclusive = small, poorly fitted or top-dose-only effect; inactive = no such curve, though single readings can be large or run the other way. Potencies of inconclusive entries are doubtful fits and often do not repeat.

Assay: qHTS Primary assay for Inhibitors of Plasmodium falciparum Dd2 growth in vitro; also: nearly all actives have a fitted effect of over 65% in size;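 as to activity, negative = inhibition: plate controls were DMSO vehicle for no effect and reference drug for full effect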
Conditions: P. falciparum Dd2 growth, SYBR Green, 72 h; activity, negative = inhibition: at 28.9 µM (top of the series) unless noted; series mostly up to 28.9 µM
Procedure, shortened: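 Infected erythrocytes (Dd2, 0.3% parasitemia, 2.5% hematocrit final) are added to compound in RPMI-1640/Albumax II medium, grown 72 h at 37C in low oxygen, then lysed with saponin/Triton-X containing SYBR Green and read by fluorescence.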
Potency is read from the fitted curve at half-maximal effect; tags tell the direction and shape of the fitted curve.

Row | Compound | Potency | activity, negative = inhibition | outcome
1 | COc1ccc(-c2cc(C(=O)NC3CC3)c3c(C4CCNC4)noc3n2)cc1 (stereo not given) | inconclusive: 17.8 µM [inhibitor, single point] |  | 
2 | Cc1nc(CNC(=O)c2ccc3oc(-c4cccc(F)c4)nc3c2)cs1 |  | inactive: -12.9% | 
3 | CCCn1cc(C(=O)N[C@@H]2COCC[C@H]2Oc2ccc(C#N)cc2)c(C)n1 | inconclusive: 3.98 µM [inhibitor, single point] |  | 
4 | CCOc1ccc(NC(=O)Cn2nc3c(cc2=O)CCCCC3)cc1 |  | inactive: 4.45% | 
5 | COC[C@@H]1CN(Cc2cc(OC)cc(OC)c2)C[C@H]1C(=O)N(C)C | inconclusive: 0.178 µM [inhibitor, full curve, poor fit] |  | 
6 | COc1cc2cc(CNc3ccccc3)c(=O)n(CC(=O)Nc3cc(C)cc(C)c3)c2cc1OC | active: 11.2 µM |  | 
7 | O=C(CCC1N=C2c3ccccc3N=C(SCc3ccc(F)cc3)N2C1=O)NC1CCCCC1 (stereo not given) | inconclusive: 12.6 µM [inhibitor, single point] |  | 
8 | COc1ccc(C(=O)NCC(=O)N2CCCCCNC(=O)CC2c2ccccc2)cn1 (stereo not given) |  | inactive: 13.9% | 
9 | COc1cc(Cl)ccc1C(=O)N1CCC(Cc2nc(-c3ccc(F)cc3)no2)CC1 |  | inactive: -13.9% | 
10 | CCOc1ccc(C2Cn3nnc(-c4nc(-c5cccc(C)c5)no4)c3CO2)cc1 (stereo not given) |  | inactive: -25.9% | 
11 | CCN(CCN(C)C)C(=O)C1CCN(S(=O)(=O)c2c(C)noc2/C=C/c2ccccc2F)CC1 | inconclusive: 3.16 µM [inhibitor, full curve, poor fit] |  | 
12 | CCC1Oc2ccc(NS(=O)(=O)c3ccc(C)c(F)c3)cc2CN(Cc2ccc(OC)cc2)C1=O (stereo not given) | inconclusive: 1 µM [inhibitor, partial curve, poor fit] |  | 
13 | O=S(=O)(Cc1ccccc1)N[C@H]1CO[C@H]2[C@@H]1OC[C@@H]2n1nnnc1Oc1ccc(-n2ccnc2)cc1 |  | inactive: -19% | 
14 | CC(C)c1ccc(Nc2c(-c3ccco3)nc3ccccn23)cc1 | inconclusive: 11.2 µM [inhibitor, single point] |  | 
15 | COc1ccc(/C=C/C(=O)Nc2ccc3nc(N4CCCCC4)cc(C)c3c2)cc1OC | active: 3.98 µM |  | 
16 | Cc1ccc(S(=O)(=O)N(CC(=O)Nc2ccc3c(c2)OCO3)c2ccc(C)c(Cl)c2)cc1 | inconclusive: 0.794 µM [inhibitor, full curve, poor fit] |  | 
17 | CN(C)CCN1CCCN(C(=O)CCc2ccccc2)c2ccccc21 | active: 7.08 µM |  | 
18 | COc1ccc(CN2CC(Oc3ccc(F)c(C)c3)C2)cc1 | inconclusive: 31.6 µM [inhibitor, single point] |  | 
19 | COc1ccc(-c2ccc3ncc(Nc4cccc(O)c4)n3n2)cc1OC | inconclusive: 5.62 µM [inhibitor, single point] |  | 
20 | COc1ccc(-n2nc(C)c([C@@H]3C=C[C@@H](NCc4cccc(Cl)c4)C3)c2C)cc1 | inconclusive: 0.631 µM [inhibitor, full curve, poor fit] |  | 
21 | CCOC(=O)c1ccc(NC(=O)CSc2nc3c([nH]c4ccccc43)c(=O)n2C)cc1 | inconclusive: 10 µM [inhibitor, single point] |  | 
22 | COc1ccc(-c2cc(N3CCCN(C(=O)c4cc(OC)cc(OC)c4)CC3)n[nH]2)cc1 | inconclusive: 3.98 µM [inhibitor, single point] |  | 

Row | Compound | Potency | activity, negative = inhibition | outcome
23 | Cc1cccc(-c2cccc(CCOc3cnc4c(ccn4CC(=O)O)c3)c2)c1 |  |  | inactive [at 44.1 µM]
24 | CCOC(=O)c1scc(-c2ccccc2)c1S(=O)(=O)N1CCN(c2ccccc2OC)CC1 | inconclusive: 8.91 µM [inhibitor, single point] |  | 
25 | COc1ccc(NC(=O)c2oc3ccc(S(=O)(=O)N(C)C4CCCCC4)cc3c2C)cc1 | inconclusive: 17.8 µM [inhibitor, single point] |  | 
26 | COc1ccc(CC(=O)N2CCCN(c3cc(-c4ccc(OC)cc4)[nH]n3)CC2)cc1 | inconclusive: 2.24 µM [inhibitor, full curve, poor fit] |  | 
27 | N#Cc1cccc(C(=O)N2CCCN(C(=O)C3CC3)C(c3ccccc3)CC(=O)NCC2)c1 (stereo not given) |  | inactive: -11.3% | 
28 | CCc1ccc(NC(=O)CCNS(=O)(=O)c2ccc3c(c2)CCCC(=O)N3)cc1 |  | inactive: 49.7% | 
29 | COc1cccc(C(=O)Nc2c3c(nn2-c2ccc(Cl)cc2)CS(=O)(=O)C3)c1 | inconclusive: 11.2 µM [inhibitor, single point] |  | 
30 | COc1ccccc1-c1[nH]ncc1CN1CCCCCNC(=O)[C@@H]2CCC[C@@H]21 | inconclusive: 15.8 µM [inhibitor, single point] |  | 
31 | COCCC1(NS(C)(=O)=O)CCN(C(=O)C2(c3ccc(OC)cc3)CC2)CC1 | inconclusive: 8.91 µM [inhibitor, partial curve, poor fit] |  | 
32 | O=C(NCCCn1nnc2ccccc21)C1CC(=O)N(Cc2ccccn2)C1 (stereo not given) | inconclusive: 7.94 µM [inhibitor, partial curve, poor fit] |  | 
33 | Cc1ccc(S(=O)(=O)N(C)CC2CCOCC2)c(C)c1 | inconclusive: 0.501 µM [inhibitor, full curve] |  | 
34 | CCOc1ccc(NC(=O)Cn2cc(S(=O)(=O)N3CCN(c4ccccc4F)CC3)c3ccccc3c2=O)cc1 | inconclusive: 11.2 µM [inhibitor, partial curve] |  | 
35 | COc1ccc(N(CC(=O)N2CCN(c3ccc(F)cc3)CC2)S(=O)(=O)c2c(C)n[nH]c2C)cc1 | inconclusive: 20 µM [inhibitor, single point] |  | 
36 | COC(=O)[C@@H]1Cc2c([nH]c3ccccc23)[C@H]2C[C@H](NCCc3cnc[nH]3)C[C@@H](c3ccccc3F)N21 | inconclusive: 3.55 µM [inhibitor, full curve] |  | 
37 | Cc1ccc(NC(=O)Cn2cc(S(=O)(=O)c3ccccc3)c(=O)c3cc4c(cc32)OCO4)cc1 | inconclusive: 5.01 µM [inhibitor, partial curve, poor fit] |  | 
38 | Cc1cccc(C(=O)Nc2ccc(OCc3cc(=O)n4c5c(sc4n3)CCCC5)cc2)c1 |  | inactive: 17% | 
39 | CCN(CC)C(=O)[C@@H]1CCC[C@@H](NCc2ccc(OC)cc2)CN(C)C(=O)C1 |  | inactive: 6.8% [at 44.1 µM] | 
40 | COc1ccc(N2CC(C(=O)N3CCC(C(=O)NCC(F)(F)F)C3)NC2=O)cc1 (stereo not given) |  | inactive: 0.319% | 
41 | CC(C)(O)CCc1cccc(C(=O)N2CCC(Nc3ncccn3)CC2)c1 | inconclusive: 12.6 µM [inhibitor, partial curve, poor fit] |  | 
42 | CC1CCC2(CC1)NC(=O)N(CC(=O)N1CCCCC1)C2=O (stereo not given) |  | inactive: 4.99% | 
43 | Cc1cccc(NC(=O)NCC2Cn3cccc3CN2C)c1 (stereo not given) | inconclusive: 17.8 µM [inhibitor, single point] |  | 
44 | CN(C)C(=O)N(C)Cc1cccc(C(F)(F)F)c1 |  | inactive: 2.52% [at 44.1 µM] | 

Row | Compound | Potency | activity, negative = inhibition | outcome
45 | O=C(/C=C/c1cn(CC(O)CN2CCCCCC2)c2ccccc12)c1ccc(Br)cc1 (stereo not given) | active: 10 µM |  | 
46 | CCS(=O)(=O)C(C)C(=O)Nc1ccc(OC)c(NC(=O)c2ccco2)c1 (stereo not given) | inconclusive: 7.94 µM [inhibitor, partial curve, poor fit] |  | 
47 | O=C(O)C[C@@H]1CCN(C(=O)Cc2ccccc2)C[C@@H]1CCN1CCC[C@H]1C(=O)O |  | inactive: 12% [at 44.1 µM] | 
48 | CN(C)c1ccc(-c2ccnc(N[C@H]3CO[C@H]4[C@@H]3OC[C@H]4OC(=O)Nc3ccc(Oc4ccccc4)cc3)n2)cc1 |  | inactive: -18.5% | 
49 | O=C(Nc1cccc(-n2cccn2)c1)C1CCCN1C(=O)CCn1cccn1 (stereo not given) | inconclusive: 20 µM [inhibitor, single point] |  | 
50 | Cc1ccc(-c2nc3ccccn3c2Nc2ccc3c(c2)OCO3)o1 | inconclusive: 10 µM [inhibitor, single point] |  | 
51 | COc1ccc(CN(Cc2ccco2)c2cnc(S(C)(=O)=O)nc2C(=O)Nc2ccc(C)c(C)c2)cc1 | inconclusive: 17.8 µM [inhibitor, single point] |  | 
52 | Cc1ccc(Cl)cc1NC(=O)Cn1cc2c(n1)CCCCC2 | inconclusive: 8.91 µM [inhibitor, partial curve] |  | 
53 | Cc1ccc(S(=O)(=O)N2CCCN(C)c3ccccc32)cc1C | inconclusive: 15.8 µM [inhibitor, single point] |  | 
54 | CCC(NCc1c(C(=O)N2CCCCCC2)nc2cc(C)ccn12)c1ccc(C)cc1 (stereo not given) | active: 10 µM |  | 
55 | COCC1CN(C)CC12CCN(Cc1ccc(C)o1)CC2 (stereo not given) |  | inactive: -4.98% | 
56 | COc1ccc(CN2CCOc3nc(-c4ccc(C(=O)N(C)C)cc4)ncc3C2=O)cc1 | inconclusive: 2 µM [inhibitor, single point] |  | 
57 | CN(Cc1cccc(C(F)(F)F)c1)C(=O)C1CCCC1 | inconclusive: 7.94 µM [inhibitor, partial curve, poor fit] |  | 
58 | Nc1c(C(=O)Nc2ccc(OC(F)(F)F)cc2)sc2nc3c(cc12)N1CCC3CC1 | active: 11.2 µM |  | 
59 | Cc1cccc(C)c1OCCn1c(C2CC(=O)N(Cc3ccc(F)cc3)C2)nc2ccccc21 (stereo not given) | active: 2.51 µM |  | 
60 | COc1ccccc1Oc1ncccc1CNC(=O)Nc1cccc(C#N)c1 | inconclusive: 11.2 µM [inhibitor, partial curve] |  | 
61 | COc1ccc(Cn2ccc3nc(C)c(C(=O)NCc4ccc(C)cc4)cc3c2=O)cc1 | inconclusive: 12.6 µM [inhibitor, single point] |  | 
62 | O[C@@H]1C[C@@H](c2nc(-c3cccnc3)no2)N(Cc2cccs2)C1 | inconclusive: 31.6 µM [inhibitor, single point] |  | 
63 | COCCOC1CCN(C(=O)Nc2ccc3c(c2)OCCO3)CC1 |  | inactive: 47.6% | 
64 | Cc1cccc(OCCSc2nc3ccc(NC(=O)COc4ccccc4F)cc3s2)c1 | inconclusive: 20 µM [inhibitor, single point] |  | 
65 | CC(C)Cn1c(CN(C)CCC2CCCCO2)cnc1S(=O)(=O)Cc1ccccc1 (stereo not given) | inconclusive: 1.12 µM [inhibitor, partial curve, poor fit] |  | 
